# Measurements: paper PMC9911399, “Two distinct binding modes provide the RNA-binding protein RbFox with extraordinary sequence specificity”
# Numbering of substitutions follows the chain as printed; changes in the protein carry UniProt numbers. The list shows a part of the results.
# T1: RBFOX1 RRM (Homo sapiens, UniProt Q9NWB1 109-208)
# T1 sequence: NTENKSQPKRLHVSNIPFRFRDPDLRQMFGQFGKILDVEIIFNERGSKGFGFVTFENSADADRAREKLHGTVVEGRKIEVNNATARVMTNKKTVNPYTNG
# B1: CCGGGUU (DNA:RNA)
# RNA: GGGAGACCGGAAUUCAGAUUGUCCCCGGGUUUUAAAUCCCGUCGUAGCCACCA
# DNA 1: CAATCTGAATTCCGGTCTCCC
# DNA 2: TGGTGGCTACGACGGGATT
# B2: UGGGCCU (DNA:RNA)
# RNA: B1 RNA with C25U, C26G, G29C, U30C
# DNA 1: CAATCTGAATTCCGGTCTCCC
# DNA 2: TGGTGGCTACGACGGGATT
# B3: CUUUAUG (DNA:RNA)
# RNA: B1 RNA with C26U, G27U, G28U, G29A, U31G
# DNA 1: CAATCTGAATTCCGGTCTCCC
# DNA 2: TGGTGGCTACGACGGGATT
# B4: GCCCACC (DNA:RNA)
# RNA: B1 RNA with C25G, G27C, G28C, G29A, U30C, U31C
# DNA 1: CAATCTGAATTCCGGTCTCCC
# DNA 2: TGGTGGCTACGACGGGATT
# B5: UAGCGUU (DNA:RNA)
# RNA: B1 RNA with C25U, C26A, G28C
# DNA 1: CAATCTGAATTCCGGTCTCCC
# DNA 2: TGGTGGCTACGACGGGATT
# B6: GAUCAAG (DNA:RNA)
# RNA: GGGAGACCGGAAUUCAGAUUGUCCGAUCAAGUUAAAUCCCGUCGUAGCCACCA
# DNA 1: CAATCTGAATTCCGGTCTCCC
# DNA 2: TGGTGGCTACGACGGGATT
# B7: GGAGCCU (DNA:RNA)
# RNA: B1 RNA with C25G, C26G, G27A, G29C, U30C
# DNA 1: CAATCTGAATTCCGGTCTCCC
# DNA 2: TGGTGGCTACGACGGGATT
# B8: GCUCGUG (DNA:RNA)
# RNA: B6 RNA with A26C, A29G, A30U
# DNA 1: CAATCTGAATTCCGGTCTCCC
# DNA 2: TGGTGGCTACGACGGGATT
# B9: GCUCUGA (DNA:RNA)
# RNA: B6 RNA with A26C, A29U, A30G, G31A
# DNA 1: CAATCTGAATTCCGGTCTCCC
# DNA 2: TGGTGGCTACGACGGGATT
# Biological target: T1, RBFOX1 RRM
# Assay: EMSA; HiTS-Eq, 1 nM pool, 10 min; buffer printed only for the single-RNA assays: 10 mM Tris pH 7.5, 150 mM NaCl, 3.4 mM EDTA, 0.001% NP-40, 30 C
# Conditions: tags: His6 N-terminal (pET28a); label: 5' 32P
# Outline: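 A pool of RNA with 7 randomized nucleotides, 5′-radiolabelled and with DNA-annealed flanks, was equilibrated at 1 nM for 10 min in 50 µL with purified RbFox RRM, wild type or mutant, across increasing protein concentrations. Free RNA was separated by 8% native PAGE, excised, reverse-transcribed, barcoded by PCR and sequenced. Relative association constants were obtained from read-count changes of each RNA species versus the control reaction and normalised to the cognate motif.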
row,Binder,binding signal
1,B1,0.0196 KA relative to UGCAUGU
2,B2,0.0237 KA relative to UGCAUGU
3,B3,0.0126 KA relative to UGCAUGU
4,B4,0.00588 KA relative to UGCAUGU
5,B5,0.0117 KA relative to UGCAUGU
6,B6,0.0079 KA relative to UGCAUGU
7,B7,0.0142 KA relative to UGCAUGU
8,B8,0.0268 KA relative to UGCAUGU
9,B9,0.0253 KA relative to UGCAUGU
